Test results: PubChem BioAssay AID1346428 (National Center for Advancing Translational Sciences (NCATS), 2018)
Out of some 48,000 compounds screened, about 1,200 (2.5%) were called active. Not shown: some 2% with an inconclusive outcome.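 How the source made its calls: active means activation of at least 60% and not above a set upper limit (about 1 call in 100 departs from these limits); inconclusive means activation of 40% to 60%, or above that upper limit; inactive means activation under 40%.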 This is one part of the list.
Further: 0% is about no effect.

Each compound was assayed against Probable G-protein coupled receptor 32 (Homo sapiens) (UniProt O75388) (assay: qHTS for Agonists of Human Resolvin D1 Receptor DRV1). Conditions: CHO-K1 GPR32 beta-arrestin PathHunter luminescence, 90 min; at 76.9 µM; hits give high values; zero percent set by DMSO-only wells.
Chain of UniProt O75388 (O75388 whole entry, looked up): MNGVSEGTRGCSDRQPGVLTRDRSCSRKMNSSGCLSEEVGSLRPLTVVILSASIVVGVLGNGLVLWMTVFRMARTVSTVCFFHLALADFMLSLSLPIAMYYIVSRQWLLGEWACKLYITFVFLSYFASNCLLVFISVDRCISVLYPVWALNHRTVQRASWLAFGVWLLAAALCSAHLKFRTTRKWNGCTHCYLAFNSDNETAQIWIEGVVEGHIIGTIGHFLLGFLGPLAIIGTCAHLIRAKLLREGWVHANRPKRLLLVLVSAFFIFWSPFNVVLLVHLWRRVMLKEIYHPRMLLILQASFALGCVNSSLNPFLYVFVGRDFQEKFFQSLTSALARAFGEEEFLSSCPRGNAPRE
Procedure, shortened: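 Engineered CHO-K1 line co-expressing GPR32-ProLink and EA-beta-arrestin. Compound treatment lasted 90 min at 37 °C. Luminescence was recorded after 1 h with substrate at ambient temperature, relative to DMSO basal wells.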
In the case of `COc1ccc(C(=O)CSc2nc(C)cc(C)c2C(=O)Nc2ccccc2C)cc1`, the activation is reported as inactive: -20.8%. With `COc1ccc(C)cc1NC(=O)CN1c2ccccc2S(=O)(=O)c2ccccc21` the activation was inactive: -4.93%. In the case of `Cc1nnc(N2C(=O)c3oc4ccccc4c(=O)c3C2c2ccc(C(C)(C)C)cc2)s1` (centres undefined), the activation is reported as inactive: -10.8%. `CCc1ccc(NC(=O)CSc2nc3ccccc3nc2Cc2ccc(C)cc2)cc1` was tested, and the activation was inactive: 2.97%. `COC(=O)c1ccc(NC(=O)CC2C(=O)N(c3cccc(OC)c3)C(=O)N2Cc2ccco2)cc1` (centres undefined) was tested, and the activation was inactive: -16%. In the case of `COc1ccc(CCNC(=O)CCCn2c(=O)c3cccn3c3cccnc32)cc1OC`, the activation is reported as inactive: -11.9%. With `Cc1ccc2c(CN3CCN(Cc4ccccc4Cl)CC3)cc(=O)oc2c1` the activation was inactive: -16.1%. For `COc1ccccc1CNC(=O)Cc1c(C)c2c(cc(C)c3c(C)c(C)oc32)oc1=O`, the activation was inactive: -7.53%. `CN1[C@@H](CC(=O)c2ccccc2)CCC[C@H]1C[C@H](O)c1ccccc1` was tested, and the activation was inactive: -8.59%. In the case of `COc1ccc(OCc2ccc(-c3nc(C#N)c(N4CCN(C)CC4)o3)o2)cc1`, the activation is reported as inactive: -9.17%. In the case of `Cc1ccccc1C(=O)c1cccn1CC(=O)NCc1ccc(Cl)cc1`, the activation is reported as inactive: -19.3%. With `CCC1CN(C(=O)NCc2cccc(OC)c2)c2cc(Cl)ccc2O1` (centres undefined) the activation was inactive: -20.2%. `CCCCC1CCC(C(=O)N2CC(=O)Nc3ccc(F)cc3C2c2ccc(F)cc2)CC1` (centres undefined) was tested, and the activation was inactive: -35%. `COc1ccc(C2CC(=O)Nc3c2c(=O)nc2c(C)cccn32)cc1OC` (centres undefined) was tested, and the activation was inactive: 7.56%. With `Cc1nc2sc(C(=O)N(C)Cc3ccccc3)c(NC(=O)c3ccccc3)c2c(C)c1Cl` the activation was inactive: 35.6%. `CCOC(=O)c1cc2c(=O)n3ccccc3nc2n(CC2CCCO2)c1=NC(=O)c1ccc(C(C)(C)C)cc1` (centres undefined) was tested, and the activation was inactive: -3.04%. In the case of `CCOC(=O)c1c(NC(=O)COc2cccc(C(F)(F)F)c2)sc2c1CCC(C)C2` (centres undefined), the activation is reported as inactive: -9.49%. For `CCN(CC)c1nn2c(=O)c(C(=O)NCCc3ccc(C)cc3)cnc2s1`, the activation was inactive: -7.17%. For `COc1ccc(NC(=O)c2ccc(CN3C(=O)CCn4nc(C)cc43)cc2)c(OC)c1`, the activation was inactive: -1.99%. With `CCn1c2ccccc2c2nnc(N3CCN(c4ccc(F)cc4)CC3)nc21` the activation was inactive: -18.9%. `CCCC(=O)Nc1ccc2c(c1)nc(CN1CCN(C(=O)OCC)CC1)n2C(C)C` was tested, and the activation was inactive: -0.477%. For `COc1ccc(NC(=O)CSc2cn(CC(=O)N3CCCCC3)c3ccccc23)c(OC)c1`, the activation was inactive: -16.8%. `CCOc1ccc(CNC(=O)c2ccc(Sc3ccc(Cl)cc3)c(NC(C)=O)c2)cc1` was tested, and the activation was inactive: -3.02%. `Cc1cc(C)cc(Nc2ncnc3c2nc2n3CCCC2)c1` was tested, and the activation was inactive: -15.4%. For `CCOc1ccc(NC(=O)CSc2oc(-c3ccco3)nc2S(=O)(=O)c2ccc(C)cc2)cc1`, the activation was inactive: -4.69%. `COc1ccc(C)c2sc(NC(=O)c3ccc(S(=O)(=O)N4CCCCC4)cc3)nc12` was tested, and the activation was inactive: 3.9%. With `CC(C)CCNC(=O)CN1C(=O)CCn2nc(-c3cn(C)c4ccccc34)cc21` the activation was inactive: -12.2%. `COc1ccc(N2CC(NC(=O)COc3ccccc3F)CC2=O)cc1OC` (centres undefined) was tested, and the activation was inactive: 7.58%. For `CCOc1ccc(S(=O)(=O)NCCc2csc(-c3ccc(Cl)cc3)n2)cc1`, the activation was active: 69.2%. For `Cc1nc(S(=O)(=O)N2CCN(c3ccc(Cl)cc3)CC2)cn1C`, the activation was inactive: 10.6%. For `Cc1nnc(SCc2cc(=O)c3ccccc3[nH]2)s1`, the activation was inactive: 31.3%. In the case of `CCCN1CCN(CCCNC(=O)c2cc3c(Cl)nc4ccccc4c3s2)CC1`, the activation is reported as inactive: 38.4%. With `CCCOc1ccc(NC(=O)CC2C(=O)N(c3ccc(C)cc3)C(=O)N2C(C)C)cc1` (centres undefined) the activation was inactive: -12.9%. For `CCCOc1ccc(/C=C/C(=O)Nc2sc(C)c(C)c2C(=O)OCC)cc1OC`, the activation was inactive: -11.5%. In the case of `CCOc1ccc(CCNC(=O)c2ccc(-c3nc(CSc4ccc(C)cc4)c(C)o3)cc2)cc1`, the activation is reported as inactive: -7.92%. With `COC(=O)c1c(NC(=O)c2cc(=O)c3c(C)cc(C)cc3o2)sc2c1CCCC2` the activation was inactive: 21.7%. With `Cc1ccc(-n2ncc3c(N4CCN(c5ccccc5)CC4)ncnc32)cc1C` the activation was inactive: 6.17%. `Cc1cccc(NC(=O)CN(c2ccc(C(C)C)cc2)S(=O)(=O)c2c(C)nn(C)c2C)c1C` was tested, and the activation was inactive: -13.1%. With `CCOC(=O)C1CCN(S(=O)(=O)c2cc(-c3onc(C)c3C)ccc2C)CC1` the activation was inactive: -2.6%. For `COCCn1c(C)cc(O)c(C(c2ccccc2)N2CCC(C)CC2)c1=O` (centres undefined), the activation was inactive: -6.21%. With `CC(=O)N1CCCc2cc(S(=O)(=O)N3CCC(C(=O)N(Cc4ccccc4)C(C)C)CC3)ccc21` the activation was inactive: 6.57%. For `O=C(c1c2c(nc3ccccc13)C(=O)N(C1CCCCC1)C2)N1CCN(c2ccc(F)cc2)CC1`, the activation was inactive: 13.6%. In the case of `CCOC(=O)N1CCN(C(=O)c2ccc3c(c2)N(Cc2ccccc2F)C(=O)c2ccccc2S3=O)CC1` (centres undefined), the activation is reported as inactive: -3.74%. With `CCc1ccccc1Nc1cc(C(=O)NCc2ccc(C)cc2)c2ccccc2n1` the activation was inactive: -21.2%. `COc1ccc(N2C(=O)CSC23C(=O)N(C)c2ccccc23)cc1Cl` (centres undefined) was tested, and the activation was inactive: 6.39%. `OC[C@@H](O)[C@@H](O[C@@H]1O[C@H](CO)[C@H](O)[C@H](O)[C@H]1O)[C@H](O)[C@@H](O)CO` was tested, and the activation was inactive: -8.49%. `CCOc1ccc(NC(=O)c2cc3sc(Cl)cc3n2CC)cc1` was tested, and the activation was inactive: -5.62%. For `COc1ccc(C)cc1Nc1nc2c(S(=O)(=O)c3cccc(Cl)c3)nnn2c2ccsc12`, the activation was inactive: 1.87%. In the case of `Cc1ccc(S(=O)(=O)c2cn(Cc3cccc(F)c3)c3cc(N4CCCC4)c(F)cc3c2=O)cc1`, the activation is reported as inactive: -14.3%. For `CCOC(=O)c1c(S(=O)(=O)N2CCCC(C(=O)Nc3ccc(OCC)cc3)C2)c(C)n(C)c1C` (centres undefined), the activation was inactive: -6.33%. With `Cc1ccc(-c2cc(NC(=O)c3ccccc3Cl)on2)cc1` the activation was inactive: 12.6%. `CCCOc1ccccc1-c1nc(SCC(=O)c2ccccc2)n[nH]1` was tested, and the activation was inactive: -0.831%. `c1ccc2[nH]c(-c3cscn3)nc2c1` was tested, and the activation was inactive: -13.8%. With `CCOc1cc(CNS(=O)(=O)c2ccc3c(c2)CC(=O)N3C)cc(OCC)c1OCC` the activation was inactive: -10.5%. `O=C(Nc1ccc(C(=O)N2CCN(c3ccc(F)cc3)CC2)cc1)c1nsc2ccccc12` was tested, and the activation was inactive: -19.4%. For `CCN1CCN(CCCNC(=O)c2ccc3nc(Cc4ccc(OC)cc4)oc3c2)CC1`, the activation was inactive: 6.38%. In the case of `COc1ccc(Br)cc1C(=O)Nc1ccc2oc(-c3cccnc3)nc2c1`, the activation is reported as inactive: 6.06%. `CC(=O)Nc1ccc(S(=O)(=O)N2CCC(c3ccncc3)CC2)cc1` was tested, and the activation was inactive: -10.5%. `CCCCN(CCCC)c1ncnc2c1cnn2-c1cccc(C)c1` was tested, and the activation was inactive: 19.8%. For `Cc1cc(C)n(C(C)CC(=O)NCc2ccccc2C)n1` (centres undefined), the activation was inactive: -3.93%. In the case of `CCCN(CCC)CCNC(=O)Cn1cnc2sc(C)c(S(=O)(=O)N3CCC(C)CC3)c2c1=O`, the activation is reported as inactive: -1.69%. For `COc1ccccc1CNC(=O)CN1C(=O)CCc2cc(S(=O)(=O)N3CCCCC3)ccc21`, the activation was inactive: 21.4%. `COc1ccc(C(=O)NCCn2cc(SCc3cccc(F)c3)c3ccccc32)cc1OC` was tested, and the activation was inactive: 36.4%. For `O=C(CSc1nc(-c2cccs2)nc2cc(=O)[nH]n12)Nc1ccccc1`, the activation was inactive: -45%. With `COc1ccc(CCNC(=O)Cn2cc(C(=O)c3ccc(Cl)cc3)c(=O)c3ccc(C)nc32)cc1OC` the activation was inactive: 3.42%. In the case of `CCOC(=O)C1CCN(c2nc3c(S(=O)(=O)c4ccc(Br)cc4)nnn3c3ccsc23)CC1`, the activation is reported as inactive: -23.5%. `FC(F)(F)c1cccc(-n2cc(-c3ccccc3)c3c(N4CCCCC4)ncnc32)c1` was tested, and the activation was inactive: -9.75%. For `CCc1ccc(NC(=O)CC(c2cc(OC)c(OC)c(OC)c2)N2Cc3ccccc3C2=O)cc1` (centres undefined), the activation was inactive: 1.72%. In the case of `CCOC(=O)c1cccc(NC(=O)Cn2nc3c(cc2=O)CCCC3)c1`, the activation is reported as inactive: -9.28%. With `Cn1c(=O)n(C)c2cc(NS(=O)(=O)c3ccc(F)cc3)c(NCc3ccccc3)cc21` the activation was inactive: 28.5%. For `COc1ccc(S(=O)(=O)N(CCc2ccccc2)CC(=O)NCc2ccccc2)cc1`, the activation was inactive: -2.63%. In the case of `CC(=O)C(C)=O`, the activation is reported as inactive: -2.02%. `COCCN1C(=O)c2oc3cc(C)cc(C)c3c(=O)c2C1c1cccc(O)c1` (centres undefined) was tested, and the activation was inactive: -3.18%. In the case of `COc1ccc(CNC(=O)c2cc3c(-c4ccc(Cl)cc4)nn(C)c3s2)cc1`, the activation is reported as inactive: -17%. In the case of `Cc1ccc(N2CC(C(=O)NCCS(=O)(=O)N3CCN(c4ccccc4)CC3)CC2=O)cc1` (centres undefined), the activation is reported as inactive: -8.83%. For `Cc1c(C(=O)NC(C)c2ccccc2)sc2ncnc(N(C)C3CCCCC3)c12` (centres undefined), the activation was inactive: -40.3%. With `Cc1ccc(-c2c(CN3CCN(c4cc(C)ccc4C)CC3)csc2C)cc1` the activation was inactive: -30.4%. `O=S(=O)(Nc1ccc(-c2ccc(N3CCCCC3)nn2)cc1)c1ccc(OC(F)(F)F)cc1` was tested, and the activation was inactive: -3.43%. `CCCn1cc(S(=O)(=O)c2cccc(Cl)c2)c(=O)c2cc(F)c(N3CCOCC3)cc21` was tested, and the activation was inactive: -17.5%. `CCN(CC)C(=O)CSc1nnc2ccc3ccccc3n12` was tested, and the activation was inactive: 7.35%. In the case of `CCc1ccccc1NC(=O)CN1C(=O)CCn2nc(-c3cccn3C)cc21`, the activation is reported as inactive: -8.99%. `Cc1nn(-c2ccc(N3CCCCC3)nn2)c(C)c1CCC(=O)NCc1ccc(F)cc1` was tested, and the activation was inactive: -10.7%. With `CCN(Cc1nc(-c2cccc(C)c2)no1)S(=O)(=O)c1ccc(C)cc1` the activation was inactive: -4.2%. In the case of `O=C(COc1ccccc1)Nc1sc2c(c1C(=O)Nc1ccccc1Cl)CCCCC2`, the activation is reported as inactive: 13.8%.
